Laboratory results from the supplement of paper PMC10126150.
Values marked as one replicate rest on one cluster of the flow cell; about a third of the high ones do not repeat.

System: ATP
Assay: switch fluorescence ratio, 500 uM ATP over buffer (Cy3 cluster intensity, sum of 5 cycles each) (fold (ratio)); higher = stronger signal-on switching upon ATP binding; sequences stand for … in TCGTCGGCAGCGTCAGATGTGTATAAGAGACAGTTTTTTTTTTTTTTTTTTTTTTTTT…TC
Details: aptamer strand: ATP DNA aptamer (quencher-CACCTGGGGGAGTATTGCGGAGGAAGG + anchor), 100 nM annealed; ATP concentration: 500 uM; one replicate
Summary of the method: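 Clusters carrying Cy3-labelled switching strands on a modified Illumina MiSeq flow-cell were annealed to 100 nM quencher-labelled ATP aptamer and imaged in selection buffer. They were imaged again after 15 min with 500 uM ATP at 22 °C, over five buffer/ATP cycles with NaOH stripping and re-annealing in between. For each cluster, the fluorescence ratio is the summed Cy3 intensity of the target cycles divided by that of the buffer cycles, averaged per switch-domain sequence. Clusters outside 100-1000 RFU were left out.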
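Further: ATP exposure 15 min at 22 °C before imaging.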

| Sequence | switch fluorescence ratio |
| --- | --- |
| ATTTGCTGAC | 1.09 |
| GGGCATATCC | 1.06 |
| AATTTTGTTG | 0.976 |
| GGGATAATAT | 1.03 |
| TATTCCTCG | 1.13 |
| GCGACTCAGG | 1.17 |
| TCTCGTGGCG | 1.07 |
| AGATAATCGT | 1.02 |
| TTCTTGGAGA | 1.16 |
| TCGGGAGAGG | 0.954 |
| ATTTTCCGCT | 1.06 |
| TGAGTACGT | 1.01 |
| GATTCAAGCT | 1.08 |
| TTCTTATACC | 1.08 |
| TTGAGACACA | 1.07 |
| AGCGAGCTGG | 0.983 |
| TAGCGTTAAG | 1.01 |
| TGAAAATTT | 1.01 |
| GCGCACGTCA | 1.06 |
| TAATGGTGCC | 1.02 |
| GCACAGAGGG | 1.03 |
| ACCCGTATCA | 1.02 |
| TACTTGCTTA | 1.01 |
| CAGTGCCGCA | 1.1 |
| CTTTGATTTG | 1 |
| AATACTCCAA | 1.4 |

| Sequence | switch fluorescence ratio |
| --- | --- |
| CCGATGCCGT | 1.01 |
| TAGATGGACC | 1.02 |
| CATCGACTCT | 1 |
| AGCGAAACCT | 1.57 |
| TGCTAGCGCT | 0.967 |
| TACACGCCAA | 1.32 |
| TAGCAGCAGG | 1.52 |
| AGACTGCCA | 1.07 |
| GGGCACTGAG | 1.05 |
| TGGGGGGC | 0.966 |
| CCCGGTTGCG | 0.969 |
| AGGTTCTCAT | 0.964 |
| TGTTAAGTTC | 1.05 |
| AGCGTTGCTA | 0.961 |
| CATAGGGCT | 1.01 |
| GAGCTTTAAG | 0.993 |
| GCCTGGGCTA | 1.02 |
| TCGGGGCACA | 1.93 |
| GCTCTCCAGG | 3.35 |
| GCGGGCGTAG | 1.04 |
| CTCGCCGTCG | 0.957 |
| TATAATTCCT | 1.03 |
| TATCTGCGTG | 0.973 |
| GTACCCGGGG | 1.02 |
| ATCAGAGGCT | 0.981 |
| AGAAGCCAGG | 1.13 |

| Sequence | switch fluorescence ratio |
| --- | --- |
| CAAAGTTTAA | 1.03 |
| AAGTTGTTCG | 1.01 |
| TTGATACATG | 1 |
| ATTTTGTAAA | 0.998 |
| AAATACCGGA | 1.21 |
| GAAGCTTATG | 1.03 |
| ACAGCCGACT | 1.05 |
| TTGGGCGATG | 1 |
| TAAGGGACGG | 0.997 |
| TAATTCCAGC | 1 |
| GGCTTTCGGA | 0.981 |
| TGGTCTCCGT | 1.02 |
| CGTGGCGAAC | 1.06 |
| AGCAATCGTC | 2.31 |
| AGAACGTAAC | 1.41 |
| AAACAATCGC | 1.03 |
| TGGTAGTCC | 1.04 |
| CGCATGTGTG | 1.02 |
| TTTAGTACTT | 1.06 |
| AACGCGGAGT | 1.01 |
| ATAGTACTGC | 1.08 |
| TCCAAGCAGG | 1.68 |
| TCTTTGCTTA | 0.965 |
| ATGGATGAGC | 1.02 |
| CATTTTCACT | 1.02 |
| TCGAGTAGTT | 0.976 |

| Sequence | switch fluorescence ratio |
| --- | --- |
| GCTTCTCTA | 1.01 |
| ATACGGCACG | 1.04 |
| GAATCTGGTG | 1.1 |
| GATAGGGGTC | 1.02 |
| ATGGGTCAC | 1.02 |
| CGCTCTGGCT | 1.06 |
| TCGCGGGTGA | 1 |
| GGTACATAA | 1.01 |
| CAGATGCTTA | 1.02 |
| TCAAAGT | 1 |
| CGTTTGCAT | 1.06 |
| GACAGGATGG | 1.05 |
| CGAGCGGATC | 1.15 |
| GTGTTGCTAT | 0.984 |
| ATAGCAGGAA | 1.07 |
| TGTATGCCAG | 0.932 |
| CACAGGTAAG | 1.06 |
| CATATCGGTC | 0.946 |
| GCCTAGGCTA | 0.986 |
| TGAGCTTGCA | 0.985 |
| TTTATGTTCA | 1.01 |
| CATAGGCAGC | 1.06 |
| CACGCAAGGT | 1.8 |
| TCAGGCCCCT | 0.963 |
| ACGGTTTGTA | 1 |
| AAACTAGTTT | 0.943 |

| Sequence | switch fluorescence ratio |
| --- | --- |
| GTATGCACA | 1.02 |
| GTACCATCTC | 0.995 |
| TCTCCAGCTG | 1.71 |
| GAATTTGGTT | 1.01 |
| AAAGACCGAG | 1 |
| CAGGTACGAA | 1.05 |
| CCGCCCCGGG | 3.56 |
| CCAGAGTAC | 1.13 |
| CACTATTGCC | 1.03 |
| ATGCGAGACG | 1.09 |
| TTTCGAGGTC | 1.01 |
| TTGAGGGAT | 0.978 |
| AGGGTCCCGG | 0.987 |
| TTCGCCAATT | 0.996 |
| TACTATTTGA | 0.989 |
| TGGACAGCAA | 2.21 |
| CAAAGCCAGT | 1.01 |
| TTACCGCCAA | 1.63 |
| GGAAACTACA | 1.07 |
| GTTATCTTAA | 0.992 |
| CTCTGAATTA | 1.07 |
| CCCGGGGGAT | 1.07 |
| TCTCCTGCTT | 1.28 |
| ACCGATGCG | 1.02 |
| CCACTGTCCG | 1.04 |
| CCGCGGCGCT | 1.26 |

| Sequence | switch fluorescence ratio |
| --- | --- |
| TATAGCGTA | 1.05 |
| AAAGGTTAAT | 1.02 |
| TACTATTGC | 0.973 |
| CCAAACATCT | 1.01 |
| ATTCATATTT | 1.01 |
| AAGTGATCGC | 0.991 |
| CCGGCGAGCT | 1.06 |
| ACTAGAAACA | 1.04 |
| CCCAGTGCCA | 1.41 |
| TTTGGTCCAA | 0.97 |
| GCAAGGCTT | 1.02 |
| TAGATTTGCC | 1 |
| TATAGCGGAG | 1.06 |
| TTTAGTGCGT | 0.995 |
| AAACTGATTA | 0.974 |
| CTGCGTTTTT | 0.987 |
| TATCTATTTA | 1.04 |
| CAATGATTAC | 1.07 |
| AAATGTGGGT | 1.07 |
| GCGAATGTGT | 0.994 |
| GCATTGGACA | 1 |
| AGCCTGCTTT | 0.997 |
| TTCAGATGT | 1.01 |
| GGCTCTCATT | 0.978 |
| GCTCAGGGTT | 1.01 |
| TGATCCTGTA | 0.982 |

| Sequence | switch fluorescence ratio |
| --- | --- |
| TATGTTTAGG | 0.988 |
| CGACTGTGG | 0.951 |
| GCTCTAGTT | 1 |
| GATCAGAGAT | 1.01 |
| CTAGCATCAC | 2.41 |
| ACTCATATAG | 1.06 |
| CCTCCCTGGC | 1.62 |
| AGAAAAAAAT | 1.02 |
| TATGTCAAAA | 0.996 |
| GGCTGAGTC | 1.02 |
| AGTTACTAGT | 0.996 |
| TTCTGTGTTA | 1.01 |
| TCAGAATTGC | 1.07 |
| GAACTCGCGT | 1.06 |
| TAGAAATTGC | 0.994 |
| AAGCTACAAG | 1.1 |
| AGCGATATTA | 1.06 |
| AGGGTATACA | 0.993 |
| ACCGCTAGCG | 1.05 |
| CGAAATTCAG | 1 |
| TTTTTCGGA | 1.01 |
| TGGCACATTA | 1.02 |
| TAAAGTGAC | 1.13 |
| CAATAGATCG | 1.02 |
| GCGAATATAT | 1.03 |
| GGGAGAGTG | 1.05 |

| Sequence | switch fluorescence ratio |
| --- | --- |
| AAATTTAT | 1.02 |
| CTCAGGATGA | 0.988 |
| TAGTGCATA | 0.999 |
| TAAAGCAGCC | 1.04 |
| GGGAGGGCGA | 0.982 |
| AATTATGCGG | 0.92 |
| AACAGTTCCA | 1 |
| TATCCCTATA | 1.96 |
| GCTATACCCA | 1.24 |
| GAGATGAGAA | 0.969 |
| ACGGTACGCC | 1.15 |
| AAAACGAAAG | 1.04 |
| GTGAAATT | 0.997 |
| CTATCATGT | 1.05 |
| ATCCTAGAGG | 1.01 |
| CAGTGAAGGG | 1.01 |
| AACAAACAGC | 1.01 |
| CCCCACCTTT | 1.03 |
| GTTACTGTTG | 1.03 |
